From patent US20240409660A1 (ALPINE IMMUNE SCIENCES, published 2024)

Molecular target: human CTLA-4 (human, UniProt P16410 36-223)
Assay: flow cytometry, transfected cells

UniProt P16410, sequence (P16410 36-223): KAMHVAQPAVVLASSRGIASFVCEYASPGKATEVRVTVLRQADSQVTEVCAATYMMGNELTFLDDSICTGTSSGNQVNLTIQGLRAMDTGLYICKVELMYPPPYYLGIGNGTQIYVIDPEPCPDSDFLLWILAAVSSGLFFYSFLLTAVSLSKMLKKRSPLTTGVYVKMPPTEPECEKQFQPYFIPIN

WT parental MFI ratio [ratio]	Binder
1	stacked IgV-Fc: Domain 1 CD80 WT / Domain 2 ICOSL WT (Fc fusion) VIHVTKEVKEVATLSCGHNVSVEELAQTRIYWQKEKKMVLTMMSGDMNIWPEYKNRTIFDITNNLSIVILALRPSDEGTYECVVLKYEKDAFKREHLAEVTLSVKADFPTPSISDFEIPGGGGSGGGGSGGGGSDTQEKEVRAMVGSDVELSCACPEGSRFDLNDVYVYWQTSESKTVVTYHIPQNSSLENVDSRYRNRALMSPAGMLRGDFSLRLFNVTPQDEQKFHCLVLSQSLGFQEVLSVEVTLHVAANFSVGGGGSGGGGSAAA[no letters for human IgG1 Fc with C220S R292C N297G V302C (EU numbers)]
1	stacked IgV-Fc: Domain 1 ICOSL WT / Domain 2 CD80 WT (Fc fusion) DTQEKEVRAMVGSDVELSCACPEGSRFDLNDVYVYWQTSESKTVVTYHIPQNSSLENVDSRYRNRALMSPAGMLRGDFSLRLFNVTPQDEQKFHCLVLSQSLGFQEVLSVEVTLHVAANFSVGGGGSGGGGSGGGGSVIHVTKEVKEVATLSCGHNVSVEELAQTRIYWQKEKKMVLTMMSGDMNIWPEYKNRTIFDITNNLSIVILALRPSDEGTYECVVLKYEKDAFKREHLAEVTLSVKADFPTPSISDFEIPGGGGSGGGGSAAA[no letters for human IgG1 Fc with C220S R292C N297G V302C (EU numbers)]
